Results on 30 compounds are retold here after PubChem BioAssay AID1745853 (National Center for Advancing Translational Sciences (NCATS), 2022).

Assay in all cases: Primary Screen for Target Class Profiling of Small Molecule Inhibitors of Methyltransferases
The target in test [1] is Glycine N-methyltransferase (Homo sapiens) (UniProt Q14749). The settings on record: purified enzyme, MTase-Glo SAH luminescence; measured here: GNMT inhibition; at 40 µM; stronger effect = lower value. The method in brief: (§1)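 Each enzyme was assayed with SAM and its substrate. SAH formation detected by MTase-Glo luminescence; single-point 40 uM screen[…].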
Test [2] has as its target Guanidinoacetate N-methyltransferase (Homo sapiens) (UniProt Q14353). The settings on record: purified enzyme, MTase-Glo SAH luminescence; measured here: GAMT inhibition; at 40 µM; stronger effect = lower value. An outline of the steps: as §1
Test [3] concerns the target Histamine N-methyltransferase (Homo sapiens) (UniProt P50135). The settings on record: purified enzyme, MTase-Glo SAH luminescence; measured here: HNMT inhibition; at 40 µM; stronger effect = lower value. The method in brief: as §1
For test [4], the target named is Nicotinamide N-methyltransferase (Homo sapiens) (UniProt P40261). Particulars: purified enzyme, MTase-Glo SAH luminescence; measured here: NNMT inhibition; at 40 µM; stronger effect = lower value. The method in brief:
as §1

Test [5] addresses Phenylethanolamine N-methyltransferase (Homo sapiens) (UniProt P11086). The settings on record: purified enzyme, MTase-Glo SAH luminescence; measured here: PNMT inhibition; at 40 µM; stronger effect = lower value. The method in brief:
as §1

The list shows a part of the results. Further columns of the screen follow, without active or inactive calls.
On the % scale 0 is the no-effect control and ±100 the full control effect.

As for `CCC1c2ccc(C)n2CCN1C(=O)Nc1cc(OC)ccc1OC` (stereo not given), the activity change, negative = inhibition is -5.18% in test [1]; 1.68% in test [2]; 1.98% in test [3]; 2.55% in test [4]; -2.47% in test [5].

Regarding `CC(C)CCn1c(=O)c2ccc(C(=O)NC3CCCC3)cc2n2c(=O)n(CC(N)=O)nc12`, the activity change, negative = inhibition in test [1] is 2.73%; in test [2] it was 0.311%; in test [3] it was 4.14%; in test [4], -2.5%; in test [5], -1.63%.

As for `CC1CCCCC1NC(=O)C1(C)Cn2c(ccc2-c2ccco2)C(=O)N1Cc1ccccc1` (stereo not given), the activity change, negative = inhibition in test [1] is -2.39%; in test [2], 5.01%; in test [3] it was 0.364%; in test [4] it was 1.27%; in test [5] it was -1.66%.

`Cc1ccc(-c2ccnc(N(C)CC3CC(=O)N(C(C)(C)C)C3)n2)c(C)n1` (stereo not given): the activity change, negative = inhibition in test [1] was -9.02%; in test [2] it was -2.45%; in test [3], -0.491%; in test [4] it was -6.39%; in test [5], -1.61%.

Turning to `CCCCN1C(=O)CSc2c(c3ccccc3n2C)C1C(=O)NCc1ccccc1OC` (stereo not given), the activity change, negative = inhibition was 8.9% in test [1]; 0% in test [2]; 3.96% in test [3]; -7% in test [4]; 4.55% in test [5].

`O=C(O)CC1(O)C(=O)Nc2ccccc21` (stereo not given): the activity change, negative = inhibition in test [1] is 1.06%; in test [2], -0.057%; in test [3], 6.85%; in test [4] it was -9.87%; in test [5], -4.89%.

As for `CC1CCC(NC(=O)C2(C)Cn3c(cc4occc43)C(=O)N2CCc2ccccc2)CC1` (stereo not given), the activity change, negative = inhibition in test [1] was -13.5%; in test [2], 2.55%; in test [3], -7.07%; in test [4] it was -10.4%; in test [5], -8.32%.

As to `CC(C)OCCCN1C(=O)c2cc3sccc3n2CC1(C)C(=O)NC1CCCCC1C` (stereo not given), the activity change, negative = inhibition is 0.83% in test [1]; 1.58% in test [2]; 2% in test [3]; 3.89% in test [4]; -2.86% in test [5].

For `CCN1C(=O)c2cc(C(=O)NCc3cc(OC)ccc3OC)nn2CC1(C)C(=O)NC1CCCC1` (stereo not given), the activity change, negative = inhibition in test [1] was determined as 2.78%; in test [2], 0%; in test [3], 3.13%; in test [4] it was 1.98%; in test [5], 2.75%.

`CC(C)CCNC(=O)C1(C)Cn2c(cc3ccccc32)C(=O)N1Cc1ccccc1Cl` (stereo not given): the activity change, negative = inhibition in test [1] was found to be 6.13%; in test [2], 0%; in test [3], 9.56%; in test [4], 2.38%; in test [5], 2.37%.

On to `COc1cc(OC)cc(C(=O)NCC2CCCN(Cc3cc4ccccc4o3)C2)c1` (stereo not given), for which the activity change, negative = inhibition was -6.02% in test [1]; -8.21% in test [2]; -2.58% in test [3]; -11% in test [4]; -6.57% in test [5].

For `COc1ccc(OC)c(N2C(=O)c3cc4occc4n3CC2(C)C(=O)NC2CCCCCCC2)c1` (stereo not given), the activity change, negative = inhibition in test [1] is -10.7%; in test [2], 0%; in test [3], 1.96%; in test [4], -8.62%; in test [5], -1.06%.

Take `Cn1c(=O)c2ccc(C(=O)NC3CCCC3)cc2n2c(=O)n(Cc3ccc(F)cc3)nc12`: the activity change, negative = inhibition was -6.14% in test [1]; 2.15% in test [2]; -7.62% in test [3]; -5.96% in test [4]; -4.21% in test [5].

As to `Nc1ncnc2c1c(-c1ccc(Oc3ccccc3)cc1)nn2[C@@H]1CCCNC1`, the activity change, negative = inhibition is -32.1% in test [1]; 10.4% in test [2]; -41.1% in test [3]; -64.4% in test [4]; -13.2% in test [5].

On to `CCOc1ccc(CNC(=O)CN(C)S(=O)(=O)c2ccc3[nH]c4c(c3c2)CCCC4)cc1OC`, for which the activity change, negative = inhibition in test [1] was 1.13%; in test [2], 0.936%; in test [3], 1.27%; in test [4], -1.88%; in test [5], -0.335%.

Regarding `CC(=O)OC1CCC2(C)C(CCC3(C)C2CC=C2C4CC(C)(C)CCC4(C)CCC23C)C1(C)C(=O)O` (stereo not given), the activity change, negative = inhibition in test [1] was 1.45%; in test [2], 8.81%; in test [3], 9.37%; in test [4] it was -10.5%; in test [5] it was -1.54%.

On to `CC1(C(=O)NC2CCCCC2)Cn2c(cc3occc32)C(=O)N1Cc1ccccc1` (stereo not given), for which the activity change, negative = inhibition was -4.7% in test [1]; 0.297% in test [2]; -7.17% in test [3]; -0.989% in test [4]; -9.64% in test [5].

For the compound `Cc1ccc(C)c(N2CCN(S(=O)(=O)c3cc4[nH]c(=O)[nH]c4cc3Cl)CC2)c1`, the activity change, negative = inhibition was -3.33% in test [1]; 0.346% in test [2]; -5.2% in test [3]; -4.03% in test [4]; -7.91% in test [5].

As for `CCc1noc(CN(C(=O)c2oc3ccc(C)cc3c2C)C(C)C)n1`, the activity change, negative = inhibition is -2.37% in test [1]; 0.547% in test [2]; -2.02% in test [3]; -2.4% in test [4]; 1.93% in test [5].

Consider `COc1ccccc1N1CCN(C(=O)CCc2nnc3n(Cc4ccccc4)c(=O)c4ccccc4n23)CC1`, for which the activity change, negative = inhibition in test [1] was -12.8%; in test [2], 1.88%; in test [3], -9.06%; in test [4], -11.3%; in test [5], -10.1%.

Take `O=C(c1cccn1C1CC1)N1C[C@H](CO)C[C@H](CN2CCCC2)C1`: the activity change, negative = inhibition in test [1] was -7.35%; in test [2] it was -6.73%; in test [3] it was -2.62%; in test [4], -10.4%; in test [5], -19.6%.

As to `COc1ccc2c(c1)c(CN1C[C@@H](CO)[C@H](c3nc(C)no3)C1)cn2C`, the activity change, negative = inhibition was -1.11% in test [1]; -1.12% in test [2]; 1.57% in test [3]; -3.8% in test [4]; 1.09% in test [5].

Turning to `CC(C(=O)Nc1nccs1)N1CCN(c2nccnc2C#N)CC1` (stereo not given), the activity change, negative = inhibition in test [1] was -5.12%; in test [2], -2.45%; in test [3], -3.03%; in test [4], -2.86%; in test [5] it was -0.165%.

With `NC(=O)C1CCN(c2cc(-c3noc([C@@H]4CCCN4Cc4ccc(Cl)cc4)n3)ccn2)CC1`, the activity change, negative = inhibition in test [1] was -7.11%; in test [2], -4.38%; in test [3] it was -3.25%; in test [4] it was -3.63%; in test [5], 14.4%.

As to `Cc1cc(C)cc(N2C(=O)c3cc4oc(C)cc4n3CC2(C)C(=O)NC2CCCCCC2)c1` (stereo not given), the activity change, negative = inhibition in test [1] was found to be 2.44%; in test [2] it was 0%; in test [3], 4.37%; in test [4], 6%; in test [5] it was 3.52%.

Turning to `Cc1ccccc1CN1C(=O)c2cc3sccc3n2CC1(C)C(=O)NC1CCCCC1C` (stereo not given), the activity change, negative = inhibition in test [1] is 39.2%; in test [2] it was 0%; in test [3] it was 1.43%; in test [4], 1.74%; in test [5], -3.32%.

For `CCC1(N2CCN(S(=O)(=O)c3cccs3)CC2)CCN(S(C)(=O)=O)C1` (stereo not given), the activity change, negative = inhibition was -6.96% in test [1]; -9.65% in test [2]; -6.16% in test [3]; -14.5% in test [4]; -11.3% in test [5].

Take `CCNc1nc(Nc2cc(F)c(C(=O)N3CCOCC3)cc2OC)ncc1C(F)(F)F`: the activity change, negative = inhibition in test [1] was 1.19%; in test [2] it was -8.65%; in test [3] it was 7.97%; in test [4], -71.8%; in test [5], -12.1%.

With `O=C(NC1CCCCCC1)C1CCc2nnc(-c3ccccn3)n21` (stereo not given), the activity change, negative = inhibition was -5.01% in test [1]; -13.4% in test [2]; -4.06% in test [3]; -20.7% in test [4]; -10.5% in test [5].

For the compound `O=C(Nc1ccc(F)cc1)c1c[nH]c2cccnc12`, the activity change, negative = inhibition is -9.46% in test [1]; -12.3% in test [2]; -12% in test [3]; -19.7% in test [4]; -16.6% in test [5].
